# This is one part of the list.
# Tests used:
# Test in all cases: glycan array binding signal (z-score within array); higher = stronger binding
# Conditions in all cases: glycan notation: IUPAC condensed, linker removed; mutation: D325A
# [1] = target: Fuc(a1-3)[GalNAc(b1-4)]GlcNAc
# Procedure, shortened: (§1)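 The binding signal is a Z-score computed within each array and averaged over linkers. Arrays of the same protein sequence at different concentrations or buffers were also averaged together. Data originate from 3228 arrays in the Consortium for Functional Glycomics database, kept only where the protein sequence was available.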
# Fuc(a1-4)GlcNAc = target: Fuc(a1-4)GlcNAc
# Procedure, shortened: as §1
# Fuc(b1-3)GlcNAc = target: Fuc(b1-3)GlcNAc
# Procedure, shortened: as §1
# Gal(a1-2)Gal = target: Gal(a1-2)Gal
# Procedure, shortened: as §1
# Gal(a1-3)Gal = target: Gal(a1-3)Gal
# Procedure, shortened: as §1
# Gal(a1-3)Gal(b1-3)GlcNAc = target: Gal(a1-3)Gal(b1-3)GlcNAc
# Procedure, shortened: as §1
# Gal(a1-3)Gal(b1-4)Glc = target: Gal(a1-3)Gal(b1-4)Glc
# Procedure, shortened: as §1
# Gal(a1-3)Gal(b1-4)GlcNAc = target: Gal(a1-3)Gal(b1-4)GlcNAc
# Procedure, shortened: as §1
# [2] = target: Gal(a1-3)Gal(b1-4)[Fuc(a1-3)]GlcNAc
# Procedure, shortened: as §1
# Gal(a1-3)GalNAc = target: Gal(a1-3)GalNAc
# Procedure, shortened: as §1
# [3] = target: Gal(a1-3)[Gal(a1-4)]Gal(b1-4)GlcNAc
# Procedure, shortened: as §1
# Gal(a1-4)Gal(b1-4)Glc = target: Gal(a1-4)Gal(b1-4)Glc
# Procedure, shortened: as §1
# Gal(a1-4)Gal(b1-4)GlcNAc = target: Gal(a1-4)Gal(b1-4)GlcNAc
# Procedure, shortened: as §1
# Gal(a1-4)GlcNAc = target: Gal(a1-4)GlcNAc
# Procedure, shortened: as §1
# Gal(a1-6)Glc = target: Gal(a1-6)Glc
# Procedure, shortened: as §1
# Gal(b1-2)Gal = target: Gal(b1-2)Gal
# Procedure, shortened: as §1
# Gal(b1-3)Gal = target: Gal(b1-3)Gal
# Procedure, shortened: as §1
# Gal(b1-3)Gal(b1-4)GlcNAc = target: Gal(b1-3)Gal(b1-4)GlcNAc
# Procedure, shortened: as §1
# Gal(b1-3)GalNAc = target: Gal(b1-3)GalNAc
# Procedure, shortened: as §1
# [4] = target: Gal(b1-3)GalNAc(b1-3)Gal(a1-4)Gal(b1-4)Glc
# Procedure, shortened: as §1
# [5] = target: Gal(b1-3)GalNAc(b1-4)Gal(b1-4)Glc
# Procedure, shortened: as §1
# [6] = target: Gal(b1-3)GalNAc(b1-4)[Neu5Ac(a2-3)]Gal(b1-4)Glc
# Procedure, shortened: as §1
# Gal(b1-3)GlcNAc = target: Gal(b1-3)GlcNAc
# Procedure, shortened: as §1
# [7] = target: Gal(b1-3)GlcNAc(b1-2)Man(a1-3)[Gal(b1-3)GlcNAc(b1-2)Man(a1-6)]Man(b1-4)GlcNAc(b1-4)GlcNAc
# Procedure, shortened: as §1
# [8] = target: Gal(b1-3)GlcNAc(b1-3)Gal(b1-3)GlcNAc
# Procedure, shortened: as §1
# [9] = target: Gal(b1-3)GlcNAc(b1-3)Gal(b1-4)Glc
# Procedure, shortened: as §1
# [10] = target: Gal(b1-3)GlcNAc(b1-3)Gal(b1-4)GlcNAc
# Procedure, shortened: as §1
# [11] = target: Gal(b1-3)[Fuc(a1-4)]GlcNAc
# Procedure, shortened: as §1
# [12] = target: Gal(b1-3)[Fuc(a1-4)]GlcNAc(b1-3)Gal(b1-3)[Fuc(a1-4)]GlcNAc
# Procedure, shortened: as §1
# [13] = target: Gal(b1-3)[Fuc(a1-4)]GlcNAc(b1-3)Gal(b1-4)GlcNAc
# Procedure, shortened: as §1
# [14] = target: Gal(b1-3)[Fuc(a1-4)]GlcNAc(b1-3)Gal(b1-4)[Fuc(a1-3)]GlcNAc
# Procedure, shortened: as §1
# [15] = target: Gal(b1-3)[GlcNAc(b1-6)]GalNAc
# Procedure, shortened: as §1
# [16] = target: Gal(b1-3)[Neu5Ac(a2-6)]GalNAc
# Procedure, shortened: as §1
# [17] = target: Gal(b1-3)[Neu5Ac(a2-6)]GlcNAc(b1-6)Gal(b1-4)Glc
# Procedure, shortened: as §1
# [18] = target: Gal(b1-3)[Neu5Ac(b2-6)]GalNAc
# Procedure, shortened: as §1
# [19] = target: Gal(b1-4)GalNAc(a1-3)[Fuc(a1-2)]Gal(b1-4)GlcNAc
# Procedure, shortened: as §1
# [20] = target: Gal(b1-4)GalNAc(b1-3)[Fuc(a1-2)]Gal(b1-4)GlcNAc
# Procedure, shortened: as §1
# Gal(b1-4)Glc = target: Gal(b1-4)Glc
# Procedure, shortened: as §1
# Gal(b1-4)Glc6S = target: Gal(b1-4)Glc6S
# Procedure, shortened: as §1
# Gal(b1-4)GlcNAc = target: Gal(b1-4)GlcNAc
# Procedure, shortened: as §1
# [21] = target: Gal(b1-4)GlcNAc(a1-6)Gal(b1-4)GlcNAc
# Procedure, shortened: as §1
# [22] = target: Gal(b1-4)GlcNAc(b1-2)Man(a1-3)[Gal(b1-4)GlcNAc(b1-2)Man(a1-6)]Man(b1-4)GlcNAc(b1-4)GlcNAc
# Procedure, shortened: as §1
# [23] = target: Gal(b1-4)GlcNAc(b1-3)Gal(b1-3)GlcNAc
# Procedure, shortened: as §1
# [24] = target: Gal(b1-4)GlcNAc(b1-3)Gal(b1-4)Glc
# Procedure, shortened: as §1
# [25] = target: Gal(b1-4)GlcNAc(b1-3)Gal(b1-4)GlcNAc
# Procedure, shortened: as §1
binder,measurement,setting,value
Surfactant Protein D (Human); Neck + Carbohydrate Recognition Domain (NCRD) (Homo sapiens) (protein) MLLFLLSALVLLTQPLGYLEAEMKTYSHRTMPSACTLVMCSSVESGLPGRDRDGREGPRGEKGDPGLPGAAGQAGMPGQAGPVGPKGDNGSVGEPGPKGDTGPSGPPGPPGVPGPAGREGALGKQGNIGPQGKPGPKGEAGPKGEVGAPGMQGSAGARGLAGPKGERGVPGERGVPGNTGAAGSAGAMGPQGSPGARGPPGLKGDKGIPGDKGAKGESGLPDVASLRQQVEALQGQVQHLQAAFSQYKKVELFPNGQSVGEKIFKTAQFVKPFTEAQLLCTQAGGQLASPRSAAENAALQQLVVAKNEAAFLSMTDSKTEGKFTYPTGESLVYSNWAPGEPNDAGGSEDCVEIFTNGKWNDRACGEKRLVVCEF,glycan array binding signal (z-score),[1],-0.274
same,glycan array binding signal (z-score),Fuc(a1-4)GlcNAc,-0.272
same,glycan array binding signal (z-score),Fuc(b1-3)GlcNAc,0.579
same,glycan array binding signal (z-score),Gal(a1-2)Gal,-0.274
same,glycan array binding signal (z-score),Gal(a1-3)Gal,-0.264
same,glycan array binding signal (z-score),Gal(a1-3)Gal(b1-3)GlcNAc,-0.271
same,glycan array binding signal (z-score),Gal(a1-3)Gal(b1-4)Glc,-0.273
same,glycan array binding signal (z-score),Gal(a1-3)Gal(b1-4)GlcNAc,-0.232
same,glycan array binding signal (z-score),[2],-0.267
same,glycan array binding signal (z-score),Gal(a1-3)GalNAc,-0.164
same,glycan array binding signal (z-score),[3],-0.269
same,glycan array binding signal (z-score),Gal(a1-4)Gal(b1-4)Glc,-0.267
same,glycan array binding signal (z-score),Gal(a1-4)Gal(b1-4)GlcNAc,-0.262
same,glycan array binding signal (z-score),Gal(a1-4)GlcNAc,-0.265
same,glycan array binding signal (z-score),Gal(a1-6)Glc,-0.236
same,glycan array binding signal (z-score),Gal(b1-2)Gal,-0.262
same,glycan array binding signal (z-score),Gal(b1-3)Gal,-0.273
same,glycan array binding signal (z-score),Gal(b1-3)Gal(b1-4)GlcNAc,-0.267
same,glycan array binding signal (z-score),Gal(b1-3)GalNAc,-0.266
same,glycan array binding signal (z-score),[4],-0.27
same,glycan array binding signal (z-score),[5],-0.253
same,glycan array binding signal (z-score),[6],-0.264
same,glycan array binding signal (z-score),Gal(b1-3)GlcNAc,-0.258
same,glycan array binding signal (z-score),[7],-0.276
same,glycan array binding signal (z-score),[8],-0.261
same,glycan array binding signal (z-score),[9],-0.267
same,glycan array binding signal (z-score),[10],-0.267
same,glycan array binding signal (z-score),[11],-0.254
same,glycan array binding signal (z-score),[12],-0.265
same,glycan array binding signal (z-score),[13],-0.269
same,glycan array binding signal (z-score),[14],-0.269
same,glycan array binding signal (z-score),[15],-0.274
same,glycan array binding signal (z-score),[16],-0.269
same,glycan array binding signal (z-score),[17],-0.265
same,glycan array binding signal (z-score),[18],-0.271
same,glycan array binding signal (z-score),[19],-0.247
same,glycan array binding signal (z-score),[20],-0.23
same,glycan array binding signal (z-score),Gal(b1-4)Glc,-0.267
same,glycan array binding signal (z-score),Gal(b1-4)Glc6S,-0.264
same,glycan array binding signal (z-score),Gal(b1-4)GlcNAc,-0.262
same,glycan array binding signal (z-score),[21],-0.27
same,glycan array binding signal (z-score),[22],-0.273
same,glycan array binding signal (z-score),[23],-0.269
same,glycan array binding signal (z-score),[24],-0.27
same,glycan array binding signal (z-score),[25],-0.272

# Source: the supplement of paper PMC8728848
